# Measurements published in publication PMC4336329 (PLoS ONE, 2015).
# In all, about 310,000 compounds went through this assay and about 2,200 (0.71%) showed an effect of 50% or more. Effects have a minus sign here. The list shows a part of the results.
# Target: human ether-à-go-go-related gene (hERG) potassium channel (human, UniProt Q12809)
# Assay: primary screen, population patch clamp on CHO cells stably expressing hERG
# human ether-à-go-go-related gene (hERG) potassium channel, sequence (Q12809 whole entry, looked up): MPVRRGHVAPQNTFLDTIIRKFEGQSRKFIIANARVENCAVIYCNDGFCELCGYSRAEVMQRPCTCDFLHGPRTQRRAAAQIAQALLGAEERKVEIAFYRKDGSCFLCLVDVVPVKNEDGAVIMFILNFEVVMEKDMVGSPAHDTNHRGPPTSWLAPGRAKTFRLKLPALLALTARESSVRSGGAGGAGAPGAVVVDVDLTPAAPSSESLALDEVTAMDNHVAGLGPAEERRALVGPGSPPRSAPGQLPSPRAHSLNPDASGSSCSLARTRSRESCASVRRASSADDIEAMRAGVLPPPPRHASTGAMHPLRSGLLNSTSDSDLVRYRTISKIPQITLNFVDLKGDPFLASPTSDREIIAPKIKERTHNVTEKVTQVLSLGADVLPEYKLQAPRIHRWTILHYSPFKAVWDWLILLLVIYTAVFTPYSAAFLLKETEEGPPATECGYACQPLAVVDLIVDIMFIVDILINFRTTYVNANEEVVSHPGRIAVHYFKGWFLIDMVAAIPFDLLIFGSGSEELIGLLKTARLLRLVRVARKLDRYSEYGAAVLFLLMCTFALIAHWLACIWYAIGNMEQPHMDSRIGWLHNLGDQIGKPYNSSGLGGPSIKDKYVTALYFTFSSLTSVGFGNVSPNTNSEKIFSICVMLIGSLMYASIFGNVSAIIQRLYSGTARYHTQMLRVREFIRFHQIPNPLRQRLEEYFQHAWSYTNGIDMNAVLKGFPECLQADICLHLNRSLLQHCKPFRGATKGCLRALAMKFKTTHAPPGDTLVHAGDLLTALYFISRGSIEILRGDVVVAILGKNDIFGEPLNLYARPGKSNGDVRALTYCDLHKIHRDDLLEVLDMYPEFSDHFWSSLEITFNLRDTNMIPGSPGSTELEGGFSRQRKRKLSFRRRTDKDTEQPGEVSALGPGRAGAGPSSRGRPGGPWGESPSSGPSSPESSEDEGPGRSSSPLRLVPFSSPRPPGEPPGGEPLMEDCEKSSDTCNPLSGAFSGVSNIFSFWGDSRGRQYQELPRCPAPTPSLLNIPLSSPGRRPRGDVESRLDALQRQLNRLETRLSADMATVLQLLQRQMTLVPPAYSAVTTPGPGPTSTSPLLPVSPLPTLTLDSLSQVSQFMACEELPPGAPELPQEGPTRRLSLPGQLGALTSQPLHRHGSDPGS
row,SMILES,"hERG current change (%, negative = inhibition) at 1uM"
1,CC1=NN(C(=O)c2ccoc2C)C(O)(C(F)(F)F)C1 (stereo not drawn),11.3%
2,O=C1c2cc(F)ccc2OC2(CCNCC2)C12CC(c1ccccc1)=NO2 (stereo not drawn),18.4%
3,CCOC(=O)C1CCN(c2ccccc2CN2CCN(c3ccccc3OCC)CC2)CC1,-1.93%
4,CC(=O)Oc1ccccc1-c1nc(/C=C/c2ccccc2)no1,16.8%
5,CC(=NCCc1c[nH]c2ccccc12)c1c(O)n(Cc2ccccc2)c(=O)[nH]c1=O,10.6%
6,COc1cc(C2=CCN(C(C)=O)CC2)ccc1OC(C)=O,12.3%
7,COc1cc(S(=O)(=O)Nc2ccncc2)ccc1F,24%
8,CCCC(=O)Nc1ccc(NC(=O)Cc2ccccc2)cn1,3.08%
9,Cc1cc(C(=O)N/N=C2/CC(C)CC(C)(C)C2)c(C)o1 (stereo not drawn),9.97%
10,Cc1ccc(C(=O)N2CCN(c3ccc(F)cc3)CC2)cc1S(=O)(=O)N1CCCCC1,-11.6%
11,COc1ccc(/C(O)=C2/C(=O)C(=O)N(c3ncccn3)C2c2ccc(OC)c(OC)c2)cc1 (stereo not drawn),1.28%
12,COc1cccc(CC(=O)OCc2csc(CC(=O)Nc3ccccc3C)n2)c1,9.5%
13,COc1ccccc1CNC(=O)Cn1nnnc1CN(C)C(C)C,12.5%
14,Cc1cc(C)c(C)c(OCC(=O)N2CCOCC2)c1,12.3%
15,CNC(=O)COC(=O)c1nc(-n2nc(C)cc2C)ccc1Cl,4.32%
16,COc1ccc(NC(=O)CC(c2ccc(F)cc2)c2ccc(OC(C)C)cc2)cc1 (stereo not drawn),4.65%
17,COc1ccc(NC2CCCN(C(=O)Cn3ccc(C)n3)C2)cc1OC (stereo not drawn),27%
18,Cc1nc2cc(C(=O)O)ccc2n1-c1ccccc1,15.3%
19,COc1cc(/C=N/NC(=O)C(C)n2nnc3ccccc32)ccc1O (stereo not drawn),9.89%

row,SMILES,"hERG current change (%, negative = inhibition) at 1uM"
1,CCOC(=O)c1ccc(NC(=S)N2CCC(C(N)=O)CC2)cc1,-2.23%
2,O=[N+]([O-])c1ccc(N2CCN(c3ccccc3Cl)CC2)cn1,-10%
3,CC1(C)Nc2ccccc2C(=O)N1NC(=O)c1ccccc1,4.68%
4,Cc1cc(NS(=O)(=O)c2ccc(NC(=O)/C=C/c3c(F)cccc3Cl)cc2)no1,12.3%
5,O=C1C=C(N2CCOCC2)CCC1,12.9%
6,O=[N+]([O-])c1cccc(/C([O-])=C(/C(=S)Nc2ccccc2F)[n+]2ccccc2)c1,4.59%
7,CNc1nc(SC(C)C(=O)Nc2ccc(Cl)c(Cl)c2)nc(N2CCOCC2)n1 (stereo not drawn),11.8%
8,O=C(CCCN1C(=O)/C(=C/c2ccccc2)SC1=S)Nc1ccccc1O,4.51%
9,CCCCn1c(SCC(=O)c2ccc(O)c(O)c2)nc2ccsc2c1=O,11.3%
10,COc1ccc(Cl)cc1NC(=O)NCc1ccc2c(c1)OCO2,-4.8%
11,CN(C)C=O.Cc1cccc(-n2nnnc2SCC(=O)N(CC(C)C)c2c(N)n(CC(C)C)c(=O)[nH]c2=O)c1,4.9%
12,CCNC(=O)c1c(C)[nH]c(C(=O)OCC)c1C,8.48%
13,CC(C)N(C(=O)CSc1ncnc2sc(-c3ccccc3)cc12)C(C)C,12.2%
14,c1ccc(-c2noc(-c3ccco3)n2)nc1,2.45%
15,COc1ccc(CNC(=O)C2=C(C)C(=O)OC23CCC(C)CC3)cc1 (stereo not drawn),17.3%
16,N#Cc1ccc(-c2ccccc2)nc1SCC(=O)c1cc2ccccc2oc1=O,19.3%
17,S=c1[nH]nc(-c2ccco2)n1/N=C/c1ccc(Cl)cc1,12.8%
18,ON/C=N/C(=S)Nc1ncc(C(F)(F)F)cc1Cl,6.38%
19,O=C(N/N=C/c1c(O)ccc2ccccc12)c1ccc(Br)o1,13.4%

row,SMILES,"hERG current change (%, negative = inhibition) at 1uM"
1,CCc1cccc(CC)c1NC(=S)N(CCN(C)C)C(C)c1cccnc1 (stereo not drawn),8.51%
2,O=C(CNS(=O)(=O)c1ccc(Cl)c(C(F)(F)F)c1)NC1CCCCCC1,9%
3,COCCC(=O)N1CCC(Oc2ccc(C(=O)NCCSC)cc2)CC1,18.5%
4,O=C(/C=C/c1ccc([N+](=O)[O-])cc1)NCc1ccco1,-3.05%
5,COc1ccc(Br)cc1/C(C)=N/NC1=NCCN1.Cl,-0.131%
6,COc1ccc(-c2nnn(CC(=O)N3CCN(c4ccccc4OC)CC3)n2)cc1OC,24.8%
7,C=CCOc1ccc(/C=C/C(=O)OCC(=O)NC2CCCCCCC2)cc1,12.2%
8,O=C(CC(=O)Nc1ccccc1[N+](=O)[O-])Nc1ccccc1[N+](=O)[O-],10.6%
9,O=C(Nc1ccc(N2CCN(C(=O)c3ccco3)CC2)cc1)c1cc(Br)ccc1Cl,8.3%
10,O=C(COC(=O)/C=C/c1ccco1)Nc1ncc(Cl)cc1Cl,5.52%
11,O=C(O)C1=C[C@@H](c2coc3ccccc3c2=O)C[C@@H](OCCCCO)O1,18.1%
12,CC(C)(CNC(=O)Cc1ccc(NS(=O)(=O)c2cccc(C(F)(F)F)c2)cc1)N1CCOCC1,0.453%
13,CN(C)c1ncc(S(=O)(=O)c2ccccc2)c(=O)[nH]1,14.9%
14,NCC(O)CN(c1ccccc1)c1ccccc1 (stereo not drawn),15.1%
15,O=C(O)c1c(-c2ccc(Cl)cc2)cn2ccccc12,16.2%
16,CCOc1nc2cnccc2n(CC(=O)Nc2c(F)c(F)cc(F)c2F)c1=O,17.2%
17,COc1cccc(NC(=O)CN2C(=O)NC(c3ccccc3)(c3ccccc3)C2=O)c1,9.04%
18,O=C(CN1CCOCC1)NCCC12CC3CC(CC(C3)C1)C2,1.4%
19,Cc1nc2sccn2c(=O)c1S(=O)(=O)N1CCN(c2cccc(C(F)(F)F)c2)CC1,16.8%
